According to the supplement of paper PMC4604168 (melanoma cell lines):
This is one part of the list. Many values rest on one well or one pass, so single values are uncertain.
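Further: cell number obtained by counting DAPI-stained nuclei in high-throughput microscope images with image analysis software, screen run in 1,536-well plates.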

These compounds were tested on UACC257 (assay: cell count relative to DMSO control; melanoma cells; higher = more viable cells). Conditions: library dose: low library concentration; 72 h.
Work on `CC(=O)c1c(C)c2cnc(Nc3ccc(N4CCNCC4)cn3)nc2n(C2CCCC2)c1=O` [palbociclib] + COc1cc(Nc2ncc(F)c(Nc3ccc4c(n3)NC(=O)C(C)(C)O4)n2)cc(OC)c1OC [Tamatinib] (first compound 0.04 µM, partner dose 0.4 µM) yielded a cell count of 48.9%.
With `CO[C@H]1C[C@@H]2CC[C@@H](C)[C@@](O)(O2)C(=O)C(=O)N2CCCC[C@H]2C(=O)O[C@H]([C@H](C)C[C@@H]2CC[C@@H](OCCO)[C@H](OC)C2)CC(=O)[C@H](C)/C=C(\C)[C@@H](O)[C@@H](OC)C(=O)[C@H](C)C[C@H](C)/C=C/C=C/C=C/1C` [everolimus] + Cc1ccc(NC(=O)c2cccc(N(C)C)c2)cc1NC(=O)c1ccc(O)cc1 [ZM336372] (first compound 0.02 µM, partner dose 2 µM) the cell count was 70.3%.
In the case of `CC(=O)c1c(C)c2cnc(Nc3ccc(N4CCNCC4)cn3)nc2n(C2CCCC2)c1=O` [palbociclib] + COc1ccc(COc2ccc(Cc3cnc(N)nc3N)cc2OC)cc1 [GW2580] (first compound 0.04 µM, partner dose 1 µM), the cell count is reported as 69.1%.
`CO[C@H]1C[C@@H]2CC[C@@H](C)[C@@](O)(O2)C(=O)C(=O)N2CCCC[C@H]2C(=O)O[C@H]([C@H](C)C[C@@H]2CC[C@@H](OCCO)[C@H](OC)C2)CC(=O)[C@H](C)/C=C(\C)[C@@H](O)[C@@H](OC)C(=O)[C@H](C)C[C@H](C)/C=C/C=C/C=C/1C` [everolimus] + CCc1ccc(CCOc2ccc(CC3SC(=O)NC3=O)cc2)nc1 [pioglitazone] (first compound 0.02 µM, partner dose 2 µM) showed a cell count of 70.7%.
`Nc1ncn([C@H]2C[C@H](O)[C@@H](CO)O2)c(=O)n1` [decitabine] + COc1ccc(COc2ccc(Cc3cnc(N)nc3N)cc2OC)cc1 [GW2580] (first compound 0.1 µM, partner dose 1 µM) showed a cell count of 78%.
`Nc1nc(F)nc2c1ncn2[C@@H]1O[C@H](CO)[C@@H](O)[C@@H]1O` [fludarabine] + O=S(=O)(c1ccccc1)N(CC(F)(F)F)c1ccc(C(O)(C(F)(F)F)C(F)(F)F)cc1 [T0901317] (first compound 0.2 µM, partner dose 1.4 µM) showed a cell count of 86.9%.
With `Nc1ncn([C@H]2C[C@H](O)[C@@H](CO)O2)c(=O)n1` [decitabine] + O=C(O)C(=O)Nc1sc2c(c1C(=O)O)CCNC2 [TCS401] (first compound 0.1 µM, partner dose 1.66667 µM) the cell count was 92.6%.
